Experimental data: the supplement of paper PMC11417369
Some of the results follow.

What follows are sequences tested on PfHDP1 homeodomain (GST-tagged) (assay: gcPBM binding intensity (ln(normalized median fluorescence intensity)); higher = stronger DNA binding).
Method in brief: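 An Agilent 4 × 180k array carrying primer-extended double-stranded 36-bp intergenic genomic probes and negative controls received GST-tagged P. falciparum DNA-binding domains expressed in E. coli, about 25 μg on average, for 1 h. The binding buffer contained 1× PBS, 1% milk, 0.2 mg/ml BSA, 0.5% salmon testes DNA and 0.03% Triton X-100. Binding intensity is the top Masliner-normalised natural-log median intensity across replicate spots of either probe orientation, read after Alexa488 anti-GST antibody staining and a 488 nm scan.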
With “ATCTAAATTTTTCCATGTACATATACTTTTATGCAT [XGTACX_site2683]” the “gcPBM binding intensity (ln)” value was 7.08. With “TTATAATATGGATACACACACATATATAAATATATA [CACACA_site5314]” the “gcPBM binding intensity (ln)” value was 6.48. “AAAAAATAAATAAATACACACAAATCTATATTTATA [CACACA_site7243]” was tested, and the “gcPBM binding intensity (ln)” value was 6.22. With “AAATTAGAAATACCTACACACTTATCAAAATAAATT [CACACA_site7132]” the “gcPBM binding intensity (ln)” value was 5.95. With “ATAATTATGAAGCATACATGCATGTCCTGGCTTAAA [TGCATGCA_site491]” the “gcPBM binding intensity (ln)” value was 6.44. For “AAAATATGTAGACACATACACACATATATATATATA [CACACA_site1221]”, the “gcPBM binding intensity (ln)” value was 9.22. In the case of “TATATGTATGTTTGTTTGTTTGTATTTTTTAAGGTA [XGTACX_negctrl_site619]”, the “gcPBM binding intensity (ln)” value is reported as 6.85. In the case of “TTTTCTTTTTCCAAAAGTACGTAATTTAAACATTTT [XGTACX_site2066]”, the “gcPBM binding intensity (ln)” value is reported as 6.43. With “TTTTTTTTTTCAAATGCATGCAAAAAAAAAAAAATA [TGCATGCA_site945]” the “gcPBM binding intensity (ln)” value was 6.13. “CTAAGAAAAAATAAAGCACACAAATATTTTAAAAAC [CACACA_site9094]” was tested, and the “gcPBM binding intensity (ln)” value was 6.59. For “AAATTAAATAAATTTACACACTAAAAATTACAGATA [CACACA_site4722]”, the “gcPBM binding intensity (ln)” value was 6.28. “CATTATGTCGTAAATACACACATACAGATACATACA [CACACA_site4880]” was tested, and the “gcPBM binding intensity (ln)” value was 6.7. “TTTTTATTTGGTTGTGTACACATATATATATATATA [CACACA_site5844]” was tested, and the “gcPBM binding intensity (ln)” value was 9.33. For “AAAAAACACCCACATACACACAAAAATGTTATAAAT [CACACA_site81]”, the “gcPBM binding intensity (ln)” value was 6.84. “GTTATATATAATAATTGTACAAAATTAAATATAACT [XGTACX_site4189]” was tested, and the “gcPBM binding intensity (ln)” value was 6.38. In the case of “TAACTATATTTTTACTGTACAAAAAAATTAAATAAT [XGTACX_site1765]”, the “gcPBM binding intensity (ln)” value is reported as 6.46. For “ATATTAATTCTACATTGTACACATGAAAAAATATAA [XGTACX_site8759]”, the “gcPBM binding intensity (ln)” value was 6.74. In the case of “AAAACACAAAAAAAATGTACACATATATATATATAT [XGTACX_site8509]”, the “gcPBM binding intensity (ln)” value is reported as 9.11. In the case of “AAAAAGAATAAATAAATATAAATAAATAAATATATA [GTGCAC_negctrl_site336]”, the “gcPBM binding intensity (ln)” value is reported as 6.19. In the case of “ACATATAGAAGTATCTATAAACAGTGATAGCATTTT [CACACA_negctrl_site1122]”, the “gcPBM binding intensity (ln)” value is reported as 6.27. With “CAATCTTTTACGAATACACACACATAAAGAAAAAAA [CACACA_site8367]” the “gcPBM binding intensity (ln)” value was 6.85. With “AATTTTTTATATGTCACACATTTGTTATTATTATTA [CACACA_site4197]” the “gcPBM binding intensity (ln)” value was 6.51. For “TTAAATAAATAAAAATGTACATGCATATATAAATAT [XGTACX_site8908]”, the “gcPBM binding intensity (ln)” value was 6.65. With AATAAATTATGAACGGTGCAGGAAAAATTGTAACAT the “gcPBM binding intensity (ln)” value was 8.21. “TAGATTATTTTATTTAGTACATAAAAAAGTAAGACC [XGTACX_site7889]” was tested, and the “gcPBM binding intensity (ln)” value was 6.63. “TGAAGTGCAAAATACTGTACGTAATGTGCTTGTTAC [XGTACX_site4512]” was tested, and the “gcPBM binding intensity (ln)” value was 9.73. “AAACATAAGGGACACACACACATATATATATATATA [CACACA_site5920]” was tested, and the “gcPBM binding intensity (ln)” value was 9.24. For “CAAAAAAACAAACACACACACACACCGATATATATA [CACACA_site9218]”, the “gcPBM binding intensity (ln)” value was 6.92. In the case of “AAAAAAAAATGTCATGGTACACAATTTTTTCTTTTT [XGTACX_site4505]”, the “gcPBM binding intensity (ln)” value is reported as 5.89. In the case of “TAAAGTAAAACAAGGTAAGGTTTTTCTTTTTCTTTT [CACACA_negctrl_site1271]”, the “gcPBM binding intensity (ln)” value is reported as 5.7. “TATATCCACATTTTTAGTACTTAAAAATAAATAAAC [XGTACX_site3826]” was tested, and the “gcPBM binding intensity (ln)” value was 6.62. For “TTCTGACCAATGCTATAAAATAATACAAAAGAAAAA [GTGCAC_negctrl_site3]”, the “gcPBM binding intensity (ln)” value was 6.47. “TGAAGAGGAAACAAACAAAATGAATAATTAAAAAGG [CACACA_negctrl_site1601]” was tested, and the “gcPBM binding intensity (ln)” value was 6.69. “TTTTGTTATAATAAAGTGCATTTAGTCGGGTTACAA [GTGCAC_site9779]” was tested, and the “gcPBM binding intensity (ln)” value was 8.3. For AAATATTATAAAAAGGTGCATTTTTATTATATGAGT, the “gcPBM binding intensity (ln)” value was 8.91. In the case of “CTAGGTATGCTTTAAACATGCAAAAATACAAATTAC [TGCATGCA_site239]”, the “gcPBM binding intensity (ln)” value is reported as 6.71. For “ATATATAAATATATTTGTACATATAATATGTATTAT [XGTACX_site8820]”, the “gcPBM binding intensity (ln)” value was 6.61. With “AATTTAAAAAAAATCACACACAGAAAAAAAAAAAAA [CACACA_site2322]” the “gcPBM binding intensity (ln)” value was 6.23. With “ATATATGTTTTTATATGTACTTATAATGTGTGTATA [XGTACX_site5165]” the “gcPBM binding intensity (ln)” value was 6.69. “TTTCTTCATTTTTTCACACATAAGAAAATATAATCA [CACACA_site4275]” was tested, and the “gcPBM binding intensity (ln)” value was 6.59. For “AAGGAAAACAATAGGTGTACCAAACGTCCTAGGAAC [XGTACX_site5732]”, the “gcPBM binding intensity (ln)” value was 6.48. In the case of “AAAAAAGCAATATGATGTACATTTACTTTGTGAAAG [XGTACX_site4450]”, the “gcPBM binding intensity (ln)” value is reported as 6.47. With “TAAAAAAATAAAATTACACACATATATAAATATATA [CACACA_site2620]” the “gcPBM binding intensity (ln)” value was 6.21. With “AAAAAAAGTTATATTACACACTTTATTCGTTAACTT [CACACA_site3013]” the “gcPBM binding intensity (ln)” value was 6.48. “ACAACAATATTTGAATGTACTCTATTTTCGTTGTTC [XGTACX_site593]” was tested, and the “gcPBM binding intensity (ln)” value was 6.45.
